# Source: article PMC12820563, “FoxP3 forms a head-to-head dimer in vivo and stabilizes its multimerization on adjacent microsatellites”
# This is one part of the list.
# Target: T1, MBP-FoxP1dN (Mus musculus, UniProt P58462 326-579)
# T1 sequence: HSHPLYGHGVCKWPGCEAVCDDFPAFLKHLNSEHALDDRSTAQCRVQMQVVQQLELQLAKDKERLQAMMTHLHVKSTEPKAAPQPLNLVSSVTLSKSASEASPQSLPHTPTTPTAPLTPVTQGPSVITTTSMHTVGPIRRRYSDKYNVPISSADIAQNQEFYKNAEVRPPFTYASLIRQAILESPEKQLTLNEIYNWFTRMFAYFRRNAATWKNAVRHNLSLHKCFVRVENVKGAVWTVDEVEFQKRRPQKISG
# Assay: PD-seq (MBP pull-down with sequencing); 20 mM Tris-HCl pH 7.5, 100 mM NaCl, 1.5 mM MgCl2, 0.4 uM protein, 0.1 uM dsDNA library, 30 min, room temperature, amylose pull-down; high values mean tight binding
# Conditions: protein: recombinant; tags: His6-MBP; chain copies: 2; dsDNA, one strand shown
# Outline: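 A degenerate double-stranded DNA library, filled in with Klenow, was added at 0.1 µM to 0.4 µM His6-MBP-tagged mouse FoxP3 or FoxP1 fragment lacking the N-terminus, expressed in E. coli. Incubation lasted 30 min at room temperature in Tris pH 7.5 buffer with NaCl and MgCl2, after which complexes were collected on amylose resin, washed three times, digested with proteinase K to free the DNA, barcoded by PCR and sequenced by Illumina. Binding is the pooled-replicate reads-per-million enrichment of pull-down over input.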
row,Sequence,binding signal
1,GATGATTGTTCTCCCAGCTGATGAATTAAAGAGCTCGAGTAAACAAATTTTCCTAATCTTTCTGTTCAAGCGCCATCTAC,0.774 RPM ratio (pull-down/input)
2,GATGATTGTTCTCCCAGCTGATGAATTTAAATTTTCGAGTAAACAAATTTTCCTAATCTTTCTGTTCAAGCGCCATCTAC,0.987 RPM ratio (pull-down/input)
3,GATGATTGTTCTCCCAGCTGATGAATTCACCGATTCGAGTAAACAAATTTTCCTAATCTTTCTGTTCAAGCGCCATCTAC,0.876 RPM ratio (pull-down/input)
4,GATGATTGTTCTCCCAGCTGATGAATTAGTTGCTTCGAGTAAACAAATTTTCCTAATCTTTCTGTTCAAGCGCCATCTAC,1.07 RPM ratio (pull-down/input)
5,GATGATTGTTCTCCCAGCTGATGAATTCTTCACCTCGAGTAAACAAATTTTCCTAATCTTTCTGTTCAAGCGCCATCTAC,0.802 RPM ratio (pull-down/input)
6,GATGATTGTTCTCCCAGCTGATGAATTGGAATCGTCGAGTAAACAAATTTTCCTAATCTTTCTGTTCAAGCGCCATCTAC,0.827 RPM ratio (pull-down/input)
7,GATGATTGTTCTCCCAGCTGATGAATTCCGGTCGTCGAGTAAACAAATTTTCCTAATCTTTCTGTTCAAGCGCCATCTAC,0.776 RPM ratio (pull-down/input)
8,GATGATTGTTCTCCCAGCTGATGAATTCAGTCCCTCGAGTAAACAAATTTTCCTAATCTTTCTGTTCAAGCGCCATCTAC,0.794 RPM ratio (pull-down/input)
9,GATGATTGTTCTCCCAGCTGATGAATTGACCTTGTCGAGTAAACAAATTTTCCTAATCTTTCTGTTCAAGCGCCATCTAC,0.868 RPM ratio (pull-down/input)
10,GATGATTGTTCTCCCAGCTGATGAATTTACGTATTCGAGTAAACAAATTTTCCTAATCTTTCTGTTCAAGCGCCATCTAC,1.45 RPM ratio (pull-down/input)
11,GATGATTGTTCTCCCAGCTGATGAATTATTAGGCTCGAGTAAACAAATTTTCCTAATCTTTCTGTTCAAGCGCCATCTAC,0.956 RPM ratio (pull-down/input)
12,GATGATTGTTCTCCCAGCTGATGAATTGTGCAACTCGAGTAAACAAATTTTCCTAATCTTTCTGTTCAAGCGCCATCTAC,1.29 RPM ratio (pull-down/input)
13,GATGATTGTTCTCCCAGCTGATGAATTGAACTCGTCGAGTAAACAAATTTTCCTAATCTTTCTGTTCAAGCGCCATCTAC,0.827 RPM ratio (pull-down/input)
14,GATGATTGTTCTCCCAGCTGATGAATTAGGCCCGTCGAGTAAACAAATTTTCCTAATCTTTCTGTTCAAGCGCCATCTAC,0.854 RPM ratio (pull-down/input)
15,GATGATTGTTCTCCCAGCTGATGAATTGGGAGGATCGAGTAAACAAATTTTCCTAATCTTTCTGTTCAAGCGCCATCTAC,0.804 RPM ratio (pull-down/input)
16,GATGATTGTTCTCCCAGCTGATGAATTTAACTTCTCGAGTAAACAAATTTTCCTAATCTTTCTGTTCAAGCGCCATCTAC,0.878 RPM ratio (pull-down/input)
17,GATGATTGTTCTCCCAGCTGATGAATTCACTTAATCGAGTAAACAAATTTTCCTAATCTTTCTGTTCAAGCGCCATCTAC,0.901 RPM ratio (pull-down/input)
18,GATGATTGTTCTCCCAGCTGATGAATTGGGATCTTCGAGTAAACAAATTTTCCTAATCTTTCTGTTCAAGCGCCATCTAC,0.82 RPM ratio (pull-down/input)
19,GATGATTGTTCTCCCAGCTGATGAATTCACCGGATCGAGTAAACAAATTTTCCTAATCTTTCTGTTCAAGCGCCATCTAC,0.794 RPM ratio (pull-down/input)
20,GATGATTGTTCTCCCAGCTGATGAATTTTACCCTTCGAGTAAACAAATTTTCCTAATCTTTCTGTTCAAGCGCCATCTAC,0.813 RPM ratio (pull-down/input)

row,Sequence,binding signal
1,GATGATTGTTCTCCCAGCTGATGAATTCAAATCATCGAGTAAACAAATTTTCCTAATCTTTCTGTTCAAGCGCCATCTAC,0.995 RPM ratio (pull-down/input)
2,GATGATTGTTCTCCCAGCTGATGAATTTCGTTCCTCGAGTAAACAAATTTTCCTAATCTTTCTGTTCAAGCGCCATCTAC,0.858 RPM ratio (pull-down/input)
3,GATGATTGTTCTCCCAGCTGATGAATTCATACCCTCGAGTAAACAAATTTTCCTAATCTTTCTGTTCAAGCGCCATCTAC,0.79 RPM ratio (pull-down/input)
4,GATGATTGTTCTCCCAGCTGATGAATTGGAAACGTCGAGTAAACAAATTTTCCTAATCTTTCTGTTCAAGCGCCATCTAC,0.803 RPM ratio (pull-down/input)
5,GATGATTGTTCTCCCAGCTGATGAATTTGGTCAATCGAGTAAACAAATTTTCCTAATCTTTCTGTTCAAGCGCCATCTAC,0.985 RPM ratio (pull-down/input)
6,GATGATTGTTCTCCCAGCTGATGAATTTACAGCGTCGAGTAAACAAATTTTCCTAATCTTTCTGTTCAAGCGCCATCTAC,1.13 RPM ratio (pull-down/input)
7,GATGATTGTTCTCCCAGCTGATGAATTTGCAAGATCGAGTAAACAAATTTTCCTAATCTTTCTGTTCAAGCGCCATCTAC,0.998 RPM ratio (pull-down/input)
8,GATGATTGTTCTCCCAGCTGATGAATTAATATCGTCGAGTAAACAAATTTTCCTAATCTTTCTGTTCAAGCGCCATCTAC,1.04 RPM ratio (pull-down/input)
9,GATGATTGTTCTCCCAGCTGATGAATTACTACGATCGAGTAAACAAATTTTCCTAATCTTTCTGTTCAAGCGCCATCTAC,1.03 RPM ratio (pull-down/input)
10,GATGATTGTTCTCCCAGCTGATGAATTCTACCCGTCGAGTAAACAAATTTTCCTAATCTTTCTGTTCAAGCGCCATCTAC,0.825 RPM ratio (pull-down/input)
11,GATGATTGTTCTCCCAGCTGATGAATTAGCAGGCTCGAGTAAACAAATTTTCCTAATCTTTCTGTTCAAGCGCCATCTAC,0.82 RPM ratio (pull-down/input)
12,GATGATTGTTCTCCCAGCTGATGAATTAACGTGGTCGAGTAAACAAATTTTCCTAATCTTTCTGTTCAAGCGCCATCTAC,0.835 RPM ratio (pull-down/input)
13,GATGATTGTTCTCCCAGCTGATGAATTCCCCTCCTCGAGTAAACAAATTTTCCTAATCTTTCTGTTCAAGCGCCATCTAC,0.793 RPM ratio (pull-down/input)
14,GATGATTGTTCTCCCAGCTGATGAATTACAAGGGTCGAGTAAACAAATTTTCCTAATCTTTCTGTTCAAGCGCCATCTAC,1.01 RPM ratio (pull-down/input)
15,GATGATTGTTCTCCCAGCTGATGAATTTTCGTGTTCGAGTAAACAAATTTTCCTAATCTTTCTGTTCAAGCGCCATCTAC,1.01 RPM ratio (pull-down/input)
16,GATGATTGTTCTCCCAGCTGATGAATTCGTCGTTTCGAGTAAACAAATTTTCCTAATCTTTCTGTTCAAGCGCCATCTAC,0.861 RPM ratio (pull-down/input)
17,GATGATTGTTCTCCCAGCTGATGAATTCCAGATATCGAGTAAACAAATTTTCCTAATCTTTCTGTTCAAGCGCCATCTAC,0.864 RPM ratio (pull-down/input)
18,GATGATTGTTCTCCCAGCTGATGAATTACGTGGTTCGAGTAAACAAATTTTCCTAATCTTTCTGTTCAAGCGCCATCTAC,0.982 RPM ratio (pull-down/input)
19,GATGATTGTTCTCCCAGCTGATGAATTGTCTACATCGAGTAAACAAATTTTCCTAATCTTTCTGTTCAAGCGCCATCTAC,1.33 RPM ratio (pull-down/input)
20,GATGATTGTTCTCCCAGCTGATGAATTTTCGAGCTCGAGTAAACAAATTTTCCTAATCTTTCTGTTCAAGCGCCATCTAC,0.794 RPM ratio (pull-down/input)
